From the BET-seq Pho4 binding data (Le et al. 2018)
The other results are listed elsewhere or left out. Values were computed here from the reads of four pooled replicates and scatter widely.

These sequences were tested against T1, Pho4 (S. cerevisiae) (UniProt P07270) (assay: relative binding free energy (BET-seq); higher = weaker binding). Conditions: reference: library average.
T1 sequence: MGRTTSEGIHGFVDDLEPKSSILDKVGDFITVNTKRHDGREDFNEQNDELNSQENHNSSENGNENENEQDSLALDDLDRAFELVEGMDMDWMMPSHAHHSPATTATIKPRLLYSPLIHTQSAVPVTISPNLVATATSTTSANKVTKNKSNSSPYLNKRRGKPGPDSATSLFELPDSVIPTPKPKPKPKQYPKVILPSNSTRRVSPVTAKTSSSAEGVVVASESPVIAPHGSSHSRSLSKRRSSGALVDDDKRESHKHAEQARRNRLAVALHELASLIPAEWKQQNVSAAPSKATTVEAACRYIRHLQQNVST
In the case of TCTTACACGTGCGGGT, the “relative binding free energy” value is reported as 0.05 kcal/mol. TGGGCCACGTGGGCGC was tested, and the “relative binding free energy” value was -0.3 kcal/mol. For TCTGTCACGTGTGCGT, the “relative binding free energy” value was 0.06 kcal/mol. With CATTTCACGTGTGAGT the “relative binding free energy” value was 0.48 kcal/mol. With GAAAGCACGTGCGGTT the “relative binding free energy” value was 0.03 kcal/mol. In the case of AGTGTCACGTGTATCA, the “relative binding free energy” value is reported as 0.14 kcal/mol. For GTTGTCACGTGCAGTT, the “relative binding free energy” value was 0.13 kcal/mol. With TGCATCACGTGGGTGG the “relative binding free energy” value was 0.05 kcal/mol. In the case of GGAAACACGTGATGTT, the “relative binding free energy” value is reported as 0.15 kcal/mol. For CGTGGCACGTGGTGAA, the “relative binding free energy” value was -0.22 kcal/mol. With TCTTGCACGTGCTGGG the “relative binding free energy” value was -0.05 kcal/mol. In the case of AATTTCACGTGATATG, the “relative binding free energy” value is reported as 0.35 kcal/mol. GTGAACACGTGCGGTT was tested, and the “relative binding free energy” value was 0.14 kcal/mol. For TGAAGCACGTGACGTG, the “relative binding free energy” value was 0.14 kcal/mol. For AAATTCACGTGTAGGT, the “relative binding free energy” value was 0.27 kcal/mol. With GTTAACACGTGGGAGT the “relative binding free energy” value was -0.07 kcal/mol. In the case of GGTAGCACGTGCATGT, the “relative binding free energy” value is reported as -0.12 kcal/mol. For CTTTGCACGTGCATGG, the “relative binding free energy” value was -0.02 kcal/mol. GTCTGCACGTGAGGCG was tested, and the “relative binding free energy” value was 0.13 kcal/mol. GTCTGCACGTGGGCGG was tested, and the “relative binding free energy” value was -0.19 kcal/mol. With ACGTGCACGTGCGGTG the “relative binding free energy” value was -0.23 kcal/mol. With ATTTTCACGTGGTAAA the “relative binding free energy” value was 0.17 kcal/mol. With GGGGGCACGTGGTGAA the “relative binding free energy” value was -0.07 kcal/mol. For TGGGACACGTGGCTTA, the “relative binding free energy” value was -0.08 kcal/mol. With TGTAACACGTGTTCTG the “relative binding free energy” value was -0.14 kcal/mol. In the case of TTTGGCACGTGTATAT, the “relative binding free energy” value is reported as -0.19 kcal/mol. With TTGATCACGTGGTTGC the “relative binding free energy” value was 0.17 kcal/mol. For TTTCTCACGTGTGCGT, the “relative binding free energy” value was 0.29 kcal/mol. For CTGTGCACGTGGTATG, the “relative binding free energy” value was -0.19 kcal/mol. For CGGTGCACGTGATGGG, the “relative binding free energy” value was 0.06 kcal/mol. CGTAGCACGTGGTGTT was tested, and the “relative binding free energy” value was -0.24 kcal/mol. TTGTACACGTGCTGGG was tested, and the “relative binding free energy” value was 0.08 kcal/mol. For CTTTTCACGTGTATGT, the “relative binding free energy” value was 0.35 kcal/mol. In the case of GGGATCACGTGGGAGG, the “relative binding free energy” value is reported as 0.16 kcal/mol. With TCTATCACGTGTGGAG the “relative binding free energy” value was 0.15 kcal/mol. With GTACGCACGTGAAGTG the “relative binding free energy” value was 0.2 kcal/mol. With GTGAGCACGTGGGGTG the “relative binding free energy” value was -0.23 kcal/mol. For ATTATCACGTGGTGCA, the “relative binding free energy” value was 0.01 kcal/mol. GGGTCCACGTGGAAGT was tested, and the “relative binding free energy” value was 0.09 kcal/mol. ATTGACACGTGTTATA was tested, and the “relative binding free energy” value was 0.05 kcal/mol. For TACGTCACGTGGTGAG, the “relative binding free energy” value was -0.1 kcal/mol. In the case of TGTCACACGTGGATGA, the “relative binding free energy” value is reported as 0.13 kcal/mol. With AACTGCACGTGGAGTG the “relative binding free energy” value was 0.02 kcal/mol. With CAGTGCACGTGCGGGT the “relative binding free energy” value was -0.05 kcal/mol. In the case of GTAGGCACGTGTTGAT, the “relative binding free energy” value is reported as -0.02 kcal/mol. With GGTACCACGTGTGAGG the “relative binding free energy” value was 0.05 kcal/mol. With ACGCTCACGTGGGTTT the “relative binding free energy” value was 0.1 kcal/mol. With TTTAGCACGTGAATAG the “relative binding free energy” value was 0.21 kcal/mol. With TTGTTCACGTGCTATT the “relative binding free energy” value was 0.26 kcal/mol. TAGATCACGTGTTCAT was tested, and the “relative binding free energy” value was 0.11 kcal/mol. With TAAGACACGTGGATAG the “relative binding free energy” value was 0.07 kcal/mol. In the case of CTGTCCACGTGGGCGG, the “relative binding free energy” value is reported as 0 kcal/mol. GAAGGCACGTGTTTCT was tested, and the “relative binding free energy” value was 0.05 kcal/mol. For AGAGCCACGTGGAGGT, the “relative binding free energy” value was -0.11 kcal/mol. CTAGGCACGTGGCTGG was tested, and the “relative binding free energy” value was -0.31 kcal/mol. With CGTAGCACGTGGATTG the “relative binding free energy” value was -0.11 kcal/mol. With GTGGGCACGTGCGAGA the “relative binding free energy” value was -0.22 kcal/mol. For AGGGACACGTGTAGTT, the “relative binding free energy” value was 0.02 kcal/mol. With GATTTCACGTGGCAAG the “relative binding free energy” value was 0.29 kcal/mol. With TTTCGCACGTGGGTCT the “relative binding free energy” value was -0.3 kcal/mol. In the case of CGGTTCACGTGTGAGA, the “relative binding free energy” value is reported as 0.3 kcal/mol. ATTTTCACGTGTGCCG was tested, and the “relative binding free energy” value was 0.21 kcal/mol. ACGATCACGTGTTTGT was tested, and the “relative binding free energy” value was 0.11 kcal/mol. With TTCTGCACGTGGGTAT the “relative binding free energy” value was -0.15 kcal/mol. For TTTGTCACGTGAGGCA, the “relative binding free energy” value was 0.17 kcal/mol. With ATGGGCACGTGAAGTT the “relative binding free energy” value was 0.14 kcal/mol. GGGGACACGTGTTAAA was tested, and the “relative binding free energy” value was 0.1 kcal/mol. TATACCACGTGGTTTT was tested, and the “relative binding free energy” value was 0.02 kcal/mol. In the case of TGTGGCACGTGGATTA, the “relative binding free energy” value is reported as 0.03 kcal/mol. With GATGTCACGTGTAAGG the “relative binding free energy” value was 0.2 kcal/mol. For GTGTGCACGTGGTACT, the “relative binding free energy” value was -0.03 kcal/mol. With TGATACACGTGTATTA the “relative binding free energy” value was 0.08 kcal/mol. With GACAGCACGTGTGGGG the “relative binding free energy” value was 0.04 kcal/mol. For GCTATCACGTGGGTGT, the “relative binding free energy” value was 0.11 kcal/mol. For TAGGGCACGTGGCGCA, the “relative binding free energy” value was -0.23 kcal/mol. With CTTTGCACGTGTGTGG the “relative binding free energy” value was -0.05 kcal/mol. In the case of TGGCACACGTGAGCGT, the “relative binding free energy” value is reported as 0.13 kcal/mol. With GAGTTCACGTGTGAGA the “relative binding free energy” value was 0.5 kcal/mol. With AGAATCACGTGTGGCT the “relative binding free energy” value was 0.29 kcal/mol. For AAGAGCACGTGGTGTA, the “relative binding free energy” value was -0.29 kcal/mol. For GAAATCACGTGTGGGA, the “relative binding free energy” value was 0.3 kcal/mol. TCTATCACGTGGGGGC was tested, and the “relative binding free energy” value was 0.04 kcal/mol. GTTGACACGTGATTGG was tested, and the “relative binding free energy” value was 0.15 kcal/mol. For CGATTCACGTGGGTGG, the “relative binding free energy” value was 0.17 kcal/mol. In the case of TTGCACACGTGTAGTT, the “relative binding free energy” value is reported as 0.05 kcal/mol. TGGTTCACGTGTGTTA was tested, and the “relative binding free energy” value was 0.38 kcal/mol. GCGTGCACGTGGTTCG was tested, and the “relative binding free energy” value was 0 kcal/mol. With TCGGGCACGTGGCATG the “relative binding free energy” value was -0.16 kcal/mol. GGTTTCACGTGCCGGT was tested, and the “relative binding free energy” value was 0.21 kcal/mol. TTTTACACGTGTCAGG was tested, and the “relative binding free energy” value was 0.15 kcal/mol. With TATAACACGTGGTTGG the “relative binding free energy” value was -0.13 kcal/mol. TGTATCACGTGTATTG was tested, and the “relative binding free energy” value was 0.06 kcal/mol. With TAGGTCACGTGTGGTA the “relative binding free energy” value was 0.15 kcal/mol. ATTGTCACGTGTGAGT was tested, and the “relative binding free energy” value was 0.1 kcal/mol. For GATGTCACGTGGTAGA, the “relative binding free energy” value was -0.01 kcal/mol. GGTAACACGTGGTCGA was tested, and the “relative binding free energy” value was -0.01 kcal/mol. With TGTAACACGTGGATCG the “relative binding free energy” value was 0.07 kcal/mol. ATTGGCACGTGCTATG was tested, and the “relative binding free energy” value was -0.14 kcal/mol. For TGTAGCACGTGACGCT, the “relative binding free energy” value was 0.06 kcal/mol. With TTGACCACGTGTTTTT the “relative binding free energy” value was -0.02 kcal/mol. In the case of GTGTGCACGTGTACTA, the “relative binding free energy” value is reported as 0.03 kcal/mol. In the case of CGCAGCACGTGATGTT, the “relative binding free energy” value is reported as 0.21 kcal/mol. In the case of AGTTGCACGTGCAAGG, the “relative binding free energy” value is reported as -0.05 kcal/mol. With ATGTTCACGTGTTAGG the “relative binding free energy” value was 0.32 kcal/mol. In the case of CTCGTCACGTGTGTTG, the “relative binding free energy” value is reported as 0.17 kcal/mol. TGGTGCACGTGTGGAT was tested, and the “relative binding free energy” value was 0.05 kcal/mol. ATACTCACGTGGAGTG was tested, and the “relative binding free energy” value was 0.17 kcal/mol. In the case of GCGGTCACGTGAGGTA, the “relative binding free energy” value is reported as 0.3 kcal/mol. With GGTCTCACGTGTCGGA the “relative binding free energy” value was 0.37 kcal/mol. In the case of AGCGGCACGTGTAGTA, the “relative binding free energy” value is reported as -0.11 kcal/mol. For GTATTCACGTGTAAGG, the “relative binding free energy” value was 0.35 kcal/mol. For TGATACACGTGGGCAG, the “relative binding free energy” value was -0.16 kcal/mol. With TTAATCACGTGATGCT the “relative binding free energy” value was 0.26 kcal/mol. For GTTTGCACGTGGAGGC, the “relative binding free energy” value was 0.17 kcal/mol. With TTACTCACGTGTGTTG the “relative binding free energy” value was 0.18 kcal/mol. With TAGTCCACGTGGGCGT the “relative binding free energy” value was -0.07 kcal/mol. For GTGGGCACGTGGTTGT, the “relative binding free energy” value was -0.08 kcal/mol. For CGGAGCACGTGGGTTA, the “relative binding free energy” value was -0.09 kcal/mol. For TGTGGCACGTGTTCTT, the “relative binding free energy” value was -0.03 kcal/mol. For GGTATCACGTGGATGC, the “relative binding free energy” value was 0.25 kcal/mol. For TGGTACACGTGTTAGA, the “relative binding free energy” value was 0.12 kcal/mol. In the case of CGAGTCACGTGGGTGA, the “relative binding free energy” value is reported as -0.16 kcal/mol. In the case of TCTTTCACGTGGGAGT, the “relative binding free energy” value is reported as 0.33 kcal/mol. CGCTTCACGTGTGTTG was tested, and the “relative binding free energy” value was 0.23 kcal/mol. With GTAAGCACGTGTTTGC the “relative binding free energy” value was -0.08 kcal/mol. With CGGGGCACGTGGTAAG the “relative binding free energy” value was -0.23 kcal/mol. In the case of AGATGCACGTGCTTGG, the “relative binding free energy” value is reported as -0.19 kcal/mol. With GAGTGCACGTGCGGTA the “relative binding free energy” value was -0.01 kcal/mol. For TTGGACACGTGTAATT, the “relative binding free energy” value was 0.26 kcal/mol. In the case of AATTTCACGTGGTTTG, the “relative binding free energy” value is reported as 0.24 kcal/mol. With TTCTGCACGTGTCGTG the “relative binding free energy” value was -0.07 kcal/mol. GAGTTCACGTGAAAGT was tested, and the “relative binding free energy” value was 0.61 kcal/mol. In the case of TTTCTCACGTGCTGTG, the “relative binding free energy” value is reported as 0.14 kcal/mol. With AGTTACACGTGTCGAG the “relative binding free energy” value was 0.13 kcal/mol. In the case of GCACGCACGTGAGGGT, the “relative binding free energy” value is reported as 0.16 kcal/mol. With ATTTACACGTGCGGTT the “relative binding free energy” value was -0.03 kcal/mol. With AAAGGCACGTGTTATT the “relative binding free energy” value was -0.22 kcal/mol. In the case of GTGAGCACGTGTGGTG, the “relative binding free energy” value is reported as 0.08 kcal/mol. For GAGGTCACGTGGGAGC, the “relative binding free energy” value was 0.02 kcal/mol. With AAGAGCACGTGTTTGT the “relative binding free energy” value was -0.04 kcal/mol. With TGCGGCACGTGCTGGG the “relative binding free energy” value was -0.1 kcal/mol. With ATTTTCACGTGAGATC the “relative binding free energy” value was 0.46 kcal/mol. CTAGGCACGTGGCAAG was tested, and the “relative binding free energy” value was -0.09 kcal/mol. With TCGAGCACGTGAGTGT the “relative binding free energy” value was 0.08 kcal/mol. For TCGTTCACGTGGGGTA, the “relative binding free energy” value was 0.26 kcal/mol. GTATGCACGTGGATAA was tested, and the “relative binding free energy” value was 0 kcal/mol.
